According to PubChem BioAssay AID1963576 (National Center for Advancing Translational Sciences (NCATS), 2024):
The campaign covered roughly 46,000 compounds. About 60 (0.1%) were called active. Another 3% or so got no clear call; they are omitted. Calls follow the shape of the dose curve; as a rule, active = well fitted inhibition curve with a large enough effect; inconclusive = small, poorly fitted or top-dose-only effect; inactive = no such curve, though single readings can be large or run the other way. The list shows a part of the results.

experiment: Primary qHTS assay for Inhibitors of ovarian cancer metastasis using an organotypic tumor microenvironment (TME) model.; also: nearly all actives have a fitted effect of over 65% in size;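 as to activity change, negative = inhibition: plate controls were DMSO wells for no effect and tomatine positive control wells for full effect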; conditions: SKOV3ip1-GFP adhesion/invasion on 3D omental model, fluorescence; series mostly up to 45.8 µM; activity change, negative = inhibition: at the top concentration
Procedure, shortened: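 A 3D layer of primary human omental fibroblasts, mesothelial cells, fibronectin and collagen I, grown 48 hr, received SKOV3ip1-GFP cells in serum-free medium plus compounds at 0.36-46 umol/L. After 2 hr RT and 16 hr 37 C, fixed adherent GFP cells were counted; normalized to DMSO and tomatine.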

Row | SMILES | activity change, negative = inhibition | outcome
1 | Cc1ccc(CNS(=O)(=O)c2ccc(N3CCCCS3(=O)=O)cc2)cc1 | inactive: -3.17% | 
2 | CC(C)(C)c1ccc(CSC2=Nc3ccccc3C3=NC(CC(=O)NCc4cccs4)C(=O)N23)cc1 (stereo unspecified) |  | inactive
3 | Cc1cn(C)c(CC(=O)NCc2cccc(Cl)c2)c1C(=O)O | inactive: 0.204% | 
4 | CC(C)(C)c1ccc(S(=O)(=O)N2CCC(Oc3ccc(-n4cnnn4)cc3)CC2)cc1 | inactive: -0.914% | 
5 | COc1cc(Cn2c(=O)oc3ccc(C)cc32)ccc1OCCC(C)C | inactive: -8.36% | 
6 | Cc1ccc2c(c1)cc1c(=O)n(Cc3cccc(Cl)c3)nc(C)n12 |  | inactive
7 | Cc1cc(C)c2c(c1)NC(=O)C2(O)c1c[nH]c2ccccc12 (stereo unspecified) |  | inactive
8 | COc1ccc(CCNC(=O)Cc2c(C)c3cc4c(C(C)(C)C)coc4c(C)c3oc2=O)cc1OC | inactive: 4.37% | 
9 | COC(=O)c1cc(NC(=O)CCc2c(C)nc3c(c(C)nn3C(C)(C)C)c2C)cc(C(=O)OC)c1 |  | inactive
10 | COc1ccc(Nc2oc(-c3ccc(COc4cccc(C)c4)o3)nc2C#N)cc1 | inactive: -49.9% | 
11 | Cn1nnnc1SCCCNCc1ccc(Cl)cc1 | inactive: -2.62% | 
12 | CC(C)c1ccc(C2Sc3ccccc3NC3=C2C(=O)c2ccccc23)cc1 (stereo unspecified) | inactive: -2.28% | 
13 | O=C(COc1ccccc1F)Nc1ccccc1C(=O)OCc1cc(=O)n2nc(C3CC3)sc2n1 | inactive: -3.49% | 
14 | CC1CCc2onc(C(=O)N3CCN(c4ccccc4)CC3)c2C1 (stereo unspecified) | inactive: -3.78% | 
15 | COc1ccc(-c2nc3c(c(SCC(=O)Nc4cccc(O)c4)n2)Cc2c(CO)cnc(C)c2O3)cc1 | inactive: -4.53% | 
16 | O=C(NCc1ccc(Cl)cc1)c1cc2c(s1)-c1ccccc1SC2 | inactive: -27.7% | 
17 | Cc1ccc(C(=O)N(Cc2ccco2)Cc2sccc2C)cc1 | inactive: -1.71% | 
18 | Cc1nc(N2CCOCC2)c2c(C(=O)N3CCN(c4ccccc4F)CC3)c(C)oc2n1 | inactive: 1.02% | 
19 | Cc1ccc(CN2COc3ccc4c(C)cc(=O)oc4c3C2)cc1 | inactive: -31.6% | 
20 | O=C(Nc1cc(Cl)ccc1Cl)c1cc(S(=O)(=O)NCCc2ccccc2)ccc1F | inactive: -0.0054% | 
21 | COc1ccc(CNC(=O)c2cnc3sc(N4CCC(C)CC4)nn3c2=O)c(OC)c1 | inactive: -17.8% | 
22 | CCc1ccc(NC(=O)C2CCN(c3nn4cc(-c5ccc(OC)cc5)nc4s3)CC2)cc1 |  | inactive
23 | Cc1ccc(N2C(=O)CC(c3ccccc3F)C3=C2COC3=O)cc1Cl (stereo unspecified) | inactive: 0.821% | 
24 | COc1ccc(-c2c(C#N)c(SCC(=O)Nc3cccc(Cl)c3)nc(C)c2C(=O)Nc2ccccc2)cc1OC | inactive: -0.601% | 

Row | SMILES | activity change, negative = inhibition | outcome
25 | CCc1ccccc1NC(=O)Cn1c(=O)n(Cc2ccco2)c(=O)c2ccccc21 |  | inactive
26 | CCc1nnc2c(N3CCN(c4cccc(C)c4)C(C)C3)nc3ccccc3n12 (stereo unspecified) | inactive: 3.74% | 
27 | CCN(CC)C(=O)Cn1c(=O)n(-c2ccc(Cl)c(Cl)c2)c(=O)c2c(C)c(C(=O)N(CC)CC)sc21 | inactive: -0.329% | 
28 | CC1CCN(c2nc3c(S(=O)(=O)c4ccccc4)nnn3c3ccc(Cl)cc23)CC1 | inactive: 1.03% | 
29 | COc1ccc(NC(=O)c2ccc3c(c2)N(Cc2cccc(Cl)c2)C(=O)c2ccccc2S3=O)cc1Cl (stereo unspecified) | inactive: -7.21% | 
30 | COc1cccc(Cc2nc3ccccc3nc2SCC(=O)NCCc2ccccc2)c1 | inactive: 22.1% | 
31 | CCc1ccc(NC(=O)CCn2c(-c3ccc(OC)cc3)cc(C(C)=O)c2C)cc1 | inactive: -5.26% | 
32 | CC(=O)c1cccc(NC(=O)CN2C(=O)c3ccccc3Sc3ncccc32)c1 |  | inactive
33 | O=C(c1cnn(-c2cccc(F)c2)c1-n1cccc1)N1CCN(c2ccccc2F)CC1 |  | inactive
34 | COc1ccccc1NC(=O)NCCCN1CCN(c2ccc(F)cc2)CC1 | inactive: 0.615% | 
35 | Cc1c(C)n(Cc2ccccc2)c2ccc(C(=O)NCc3ccccc3F)cc12 |  | inactive
36 | CCCN1CCN(CCCNC(=O)c2ccc3c(c2)sc2nc(-c4ccc(OC)cc4)cn23)CC1 | inactive: -14.6% | 
37 | COc1ccc(C(=O)Nc2cccc(-c3cn4ccsc4n3)c2)cc1OC |  | inactive
38 | Cn1c(SCC(=O)N2CCOCC2)ncc(C(=O)Nc2ccccc2)c1=O | inactive: -12.6% | 
39 | Cc1ccccc1Cn1c(CN2CCC(C(=O)NCc3cccnc3)CC2)cc2ccccc21 | inactive: 0.646% | 
40 | O=C(NC[C@H](O)CO)c1ccncc1Nc1ccc(I)cc1F | inactive: 17.5% | 
41 | CCOC(=O)C1CCN(C(=O)Cn2nc(C)n3c(cc4sccc43)c2=O)CC1 |  | inactive
42 | CC1=C(C(=O)NCc2ccccc2Cl)C2(CCCCCC2)OC1=O |  | inactive
43 | Cc1ccc2c(CNCC(C)c3ccccc3)c(C(=O)O)n(Cc3ccccc3C)c2c1 (stereo unspecified) | inactive: 1.82% | 
44 | O=C(O)c1ccc2cc(-c3ccc(O)c(C45CC6CC(CC(C6)C4)C5)c3)ccc2c1 | inactive: 5.46% | 
45 | COc1ccc(NC(=O)/C=C\C(=O)N(c2ccc(C(C)C)cc2)C(C(=O)NCc2ccco2)c2ccc(C)cc2)cc1 (stereo unspecified) |  | inactive
46 | CCOc1ccc(C2C(=O)N(C3CCCCCC3)CC(=O)N2Cc2ccccc2)cc1OC (stereo unspecified) |  | inactive
47 | Cc1nc2ccccn2c(=O)c1NC(=O)c1cccc(F)c1 | inactive: -10.1% | 
48 | COC(=O)c1ccccc1NC(=O)Cn1cnc2sc(C)c(S(=O)(=O)N3CCC(C)CC3)c2c1=O | inactive: -5.59% | 

Row | SMILES | activity change, negative = inhibition | outcome
49 | COc1cccc(Nc2nc3cc(C)ccc3nc2NS(=O)(=O)c2ccc(Cl)cc2)c1 | inactive: 16.7% | 
50 | CCOC(=O)c1cccc(NC(=O)c2ncoc2-c2ccco2)c1 |  | inactive
51 | Cc1ccc(CNC(=O)Cn2c(SCC(=O)Nc3ccc(F)cc3)nc3ccccc32)cc1 | inactive: -31% | 
52 | Cc1cc(OCC(=O)NCCc2nc3ccccc3[nH]2)cc(C)c1Cl | inactive: -3.96% | 
53 | Cc1ccc(NC(=O)C2(C)Cc3ccccc3C(=O)O2)c(C)c1 (stereo unspecified) |  | inactive
54 | COc1ccc(CCNC(=O)c2ccc3c(c2)sc2nc(-c4ccccc4)cn23)cc1OC |  | inactive
55 | COc1cccc(C(=O)NCCc2csc3nc(-c4ccccc4F)nn23)c1OC | inactive: 5.92% | 
56 | CCOC(=O)c1cc(-c2ccc(OC)cc2)n(CCC(=O)NCCc2ccccc2)c1C | inactive: 2.06% | 
57 | Cc1ccccc1N(C)S(=O)(=O)c1nnc(NC(=O)c2ccco2)s1 | inactive: 0.255% | 
58 | Cc1cc(C)c(S(=O)(=O)NCCS(=O)(=O)N2CCN(c3ccccc3)CC2)c(C)c1 |  | inactive
59 | O=S(=O)(c1ccccc1)c1nc(-c2ccccc2Cl)oc1N1CCCCCC1 | inactive: -6.89% | 
60 | Cc1ccc(CNC(=O)C(C)n2c(=O)cc(C(F)(F)F)c3c(C)nn(C)c32)cc1 (stereo unspecified) | inactive: -4.1% | 
61 | CCn1nc(C)c(CCN(C)C(=O)Nc2cccc(Cl)c2C)c1C | inactive: 1.91% | 
62 | Cc1cccc(C(=O)N2CCc3cc(CNC(=O)c4cc5ccccc5[nH]4)ccc32)c1 | inactive: 4.41% | 
63 | Cc1ccc(S(=O)(=O)C(CNC(=O)c2c(F)cccc2F)c2ccco2)cc1 (stereo unspecified) | inactive: -3.89% | 
64 | O=C(NCc1ccccc1)C(=O)Nc1c2c(nn1-c1ccc(F)cc1)CSC2 | inactive: 2.98% | 
65 | COc1ccc(NC(=O)CN2C(=O)COc3ccc(S(=O)(=O)N4CCOCC4)cc32)cc1 | inactive: -7.68% | 
66 | COc1cccc(NC(=O)C2CCN(c3ccc(Sc4ccc(C)cc4)nn3)CC2)c1 |  | inactive
67 | COc1cccc(NC(=O)C2CCC(CNS(=O)(=O)c3ccc4c(c3)CCCC(=O)N4)CC2)c1 (stereo unspecified) | inactive: 25.4% | 
68 | CCn1cc(CNC(=O)c2cc(-c3ccc(C)cc3)nc3ccc(Br)cc23)c(C)n1 | inactive: 3.31% | 
69 | Cc1ccccc1-c1nc2scc(CCNC(=O)c3ccco3)n2n1 | inactive: -2.17% | 
70 | CCS(=O)(=O)N1CCc2cc(C(=O)NCc3ccccc3OC)ccc21 | inactive: -4.06% | 
71 | CCOc1ccc(CCNC(=O)C2CCCN(S(=O)(=O)N(C)c3ccc(F)cc3)C2)cc1 (stereo unspecified) | inactive: 9.33% | 
72 | Cc1sc2ncn(CC(=O)N3CCN(c4ccccc4F)CC3)c(=O)c2c1S(=O)(=O)N1CCC(C)CC1 | inactive: 2.27% | 

Row | SMILES | activity change, negative = inhibition | outcome
73 | Cc1ccc2nc(/C(C#N)=C/c3ccccc3F)[nH]c2c1 | inactive: 3.46% | 
74 | Cc1cccc(OCCSc2nnc(-c3cccs3)o2)c1 | inactive: 8.11% | 
75 | CCc1ccc2oc(-c3ccc(C)c(NC(=O)/C=C/c4ccco4)c3)nc2c1 |  | inactive
76 | Clc1ccccc1OCCSc1nnc(-c2cccs2)o1 | inactive: -8.11% | 
77 | O=C(CSc1nc(=O)n(Cc2ccco2)c2c1CCC2)NCc1ccccc1 | inactive: -5.76% | 
78 | COc1ccccc1CNC(=O)C1CCN(c2nc3ccc(C)cc3[nH]2)CC1 | inactive: -5.59% | 
79 | O=C(NC1CCCC1)c1ccc2c(=O)n(Cc3ccccc3)c(SCc3ccccc3F)nc2c1 | inactive: -6.77% | 
80 | COc1ccc(Cl)cc1-n1cc(-c2ccccc2)nc1SCC(=O)Nc1ccc(C)cc1 | inactive: 1.76% | 
81 | Cc1ccc(S(=O)(=O)c2nc(-c3ccc(F)cc3)oc2SCC(=O)NC2CCCCC2)cc1 | inactive: -2.69% | 
82 | C[C@]12CCC(=O)C=C1CC[C@@H]1[C@H]2[C@@H](O)C[C@@]2(C)[C@H]1CC[C@]2(O)C(=O)CO | inactive: 33.6% | 
83 | CCC(Cn1nnc2ccccc2c1=O)NC(=O)Nc1ccccc1OC (stereo unspecified) | inactive: -5.74% | 
84 | COc1ccc(-c2cc(-c3ccc(C)cc3)nc3c2COc2ccccc2-3)cc1 |  | inactive
85 | CCc1ccc(CNC(=O)CCCn2ccc3cc(S(=O)(=O)N4CCCC4)ccc32)cc1 | inactive: 6.66% | 
86 | CCOc1ccc(CCNC(=O)c2cc3c(-c4ccccc4F)nn(C)c3s2)cc1 | inactive: -0.922% | 
87 | Cc1nc(-c2ccc(S(=O)(=O)Nc3cc(Cl)ccc3C)cc2)co1 |  | inactive
88 | COc1ccc(Cn2cc(S(=O)(=O)c3ccc(C)cc3)c(=O)c3cc(F)ccc32)cc1 | inactive: -4.55% | 
89 | COc1ccc2c(c1)c(=O)c(C(=O)c1ccccc1)cn2CC(=O)Nc1ccc2c(c1)OCO2 | inactive: 2.77% | 
90 | COc1ccc2c(CNCCc3ccc(SC)cc3)c(C(=O)O)n(Cc3ccc(F)cc3)c2c1 | inactive: -14.5% | 
91 | COc1ccc(CCNC(=O)c2ccc3c(c2)CCN3S(C)(=O)=O)cc1OC |  | inactive
92 | CCC(CC)C(=O)Nc1nnc(S(=O)(=O)N2CCCCCC2)s1 | inactive: 9.82% | 
93 | CCC(Sc1nc2c(sc3ccccc32)c(=O)n1CCc1ccc(OC)c(OC)c1)C(=O)N(CC)CC (stereo unspecified) |  | inactive
94 | NS(=O)(=O)c1ccc(CCNC(=O)C2CCN(c3ncnc4c3nc3n4CCCCC3)CC2)cc1 |  | inactive
95 | Cc1ccc(CNC(=O)CCc2cn(C)c3ccccc23)cc1 |  | inactive
96 | CCOc1ccc(NC(=O)c2oc3ccccc3c2NC(=O)COc2cccc(OC)c2)cc1 |  | inactive
